US12150929B2, “Compositions and methods for the treatment of depression” (Janssen Pharmaceuticals, Inc., priority 2021, dated 2024)

Columns and labels:
Assay type in all cases: in vivo, human
[1] = system: subjects with MDD who have had an inadequate response to SSRI/SNRI treatment; test: SHAPS total score (anhedonia), Example 1; conditions: fITT, 10 mg
Excerpt: To assess a potential effect on anhedonia, an anhedonia scale may be used. For example, the Snaith-Hamilton Pleasure Scale (SHAPS) analysis is a validated scale for the measurement of anhedonia. The SHAPS is a subject completed scale in which subjects score whether or not they experience pleasure in performing a list of activities or experiences. The SHAPS is a self-reported 14-item instrument, developed for the assessment of hedonic capacity. Subjects score whether they experience pleasure in performing a list of activities or experiences. Subjects can rate the answers as 1-4 where 1 indicates “Definitely agree”, 2 indicates “Agree”, 3 indicates “Disagree” and 4 indicates “Definitely disagree”. The subject's item responses are summed to provide a total score ranging from 14 to 56. A higher total SHAPS score indicates higher levels of current anhedonia. Physician/clinical judgment can be used to assess anhedonia separately or in conjunction with an anhedonia scale.
• (i) Depression: Montgomery-Åsberg Depression Rating Scale (MADRS), Clinical Global Impression-Severity (CGI-S), Symptoms of Major Depressive Disorder Scale (SMDDS), and Self-assessment of treatment experience (SATE) • (ii) Anhedonia: Snaith-Hamilton Pleasure Scale (SHAPS) • (iii) Anxiety: Structured Interview Guide for the Hamilton Anxiety scale (SIGH-A) and HAM-A6 • (iv) Effects on Cognition: The Cognitive and Physical Functioning Questionnaire (CPFQ) • (v) Safety assessments

[2] = system: subjects with MDD who have had an inadequate response to SSRI/SNRI treatment; test: Treatment-emergent adverse events incl. AEs of special interest, full safety analysis set, Example 1; conditions: treatment period
Method: (§1) Standard safety assessments including physical and neurological examination, vital signs, 12-lead ECG, clinical chemistry, hematology, and urinalysis was performed. Based on observations of GI complaints in previous studies, a panel including PGI, PGII, G17 and Hp IgG was added to the clinical laboratory test panel to test for stomach mucosa status. • (vi) Suicidal ideation: C-SSRS • (vii) Exploratory: CPFQ • (viii) Central sedating effects: Karolinska Sleepiness Scale • (ix) Sexual dysfunction: ASEX E. Patient Population
Analysis set for safety: The safety analysis is based on the full safety analysis set, defined as all enrolled subjects who received at least one dose of medication in the treatment period.
An AE can be any unfavorable and unintended sign (including an abnormal finding), symptom, or disease temporally associated with the use of a medicinal (investigational or non-investigational) product, whether or not related to that medicinal (investigational or non-investigational) product. TEAEs were AEs with onset during the treatment phase that has worsened since baseline.

[3] = system: subjects with MDD who have had an inadequate response to SSRI/SNRI treatment; test: ASEX sexual functioning, Example 1
Excerpt: As used herein, the term “decrease in sexual functioning” refers to reducing or lessening of one or more components of the human sex drive, i.e., sexual functioning. In some embodiments, the sexual functioning comprises one or more of sexual drive, sexual arousal, vaginal lubrication, erection, orgasm achievement, or orgasm satisfaction. In other embodiments, the sexual functioning comprises sexual drive. In further embodiments, the sexual functioning comprises vaginal lubrication satisfaction. In further embodiments, the sexual functioning comprises orgasm achievement. In yet other embodiments, the sexual functioning comprises orgasm satisfaction. Desirably, the patient's sexual functioning is assessed at the time of initial administration of the aticaprant. Thus, the patient's sexual functioning while taking aticaprant can be compared to the patient's sexual functioning before administration of aticaprant. Sexual functioning may be assessed by using standard scales and techniques such as the Arizona Sexual Experience Scale (ASEX). The ASEX is used to investigate whether aticaprant has a further positive or negative effect on sexual function. The ASEX is 5 item rating scale administered to patients that quantifies sexual drive, sexual arousal, vaginal lubrication or penile erection, ability to reach orgasm and satisfaction. Scores range from 5 to 30, and two different versions of the scale are available (males and females).
as §1
Patients had their sexual functioning measured using a standard, well accepted rating scale: ASEX. See, Table 32.

[4] = TEAEs in >=5% of subjects in either group, full safety analysis set, aticaprant 10 mg, N = 85
[5] = TEAEs of special interest, full safety analysis set, aticaprant 10 mg, N = 85
[6] = of 85 subjects, sentence names diarrhea and pruritus

Cc1cc(C)cc(C2CCCN2Cc2ccc(Oc3ccc(C(N)=O)cc3F)cc2)c1 (stereo not shown) [aticaprant, 3-fluoro-4-4-2-(3,5-dimethylphenyl)pyrrolidin-1-yl-methylphenoxybenzamide]
SHAPS Total Score: Change from Baseline, MMRM LS Mean (SE) ([1]; Treatment Week 1): −1.9 (0.54) | SHAPS Total Score: Change from Baseline, MMRM LS Mean (SE) ([1]; Treatment Week 3): −3.1 (0.54) | SHAPS Total Score: Change from Baseline, MMRM LS Mean (SE) ([1]; Treatment Week 4): −4.1 (0.55) | SHAPS Total Score: Change from Baseline, MMRM LS Mean (SE) ([1]; Treatment Week 5): −4.1 (0.55) | SHAPS Total Score: Mean Change from Baseline (SD) ([1]; Treatment Week 5): −4.3 (5.70) | SHAPS Total Score: Change from Baseline, MMRM LS Mean (SE) ([1]; Treatment Week 6): −4.5 (0.55) | Diarrhea, % [2, 4]: (8) % | Gastrointestinal Disorders, % [2, 4]: (14) % | Headache, % [2, 4]: (12) % | Infections And Infestations, % [2, 4]: (15) % | Nasopharyngitis, % [2, 4]: (6) % | Nervous System Disorders, % [2, 4]: (15) % | Pruritus, % [2, 4]: (6) % | Skin And Subcutaneous Tissue Disorders, % [2, 4]: (7) % | Total no. Subjects with Adverse Events, % [2, 4]: (47) % | Abdominal Pain, % [2, 5]: 1-2% | Diarrhea, % [2, 5]: 8.2% | Dyspepsia, % [2, 5]: 1.2% | Gastrointestinal Disorders, % [2, 5]: 10.6% | Pruritus, % [2, 5]: 5.9% | Skin And Subcutaneous Tissue Disorders, % [2, 5]: 5.9% | Total no. Subjects with Adverse Events of Special Interest, % [2, 5]: 15.3% | patients who experienced acute cholecystitis [2]: 0 | Subjects with TEAE leading to discontinuation of agent, % ([2]; N = 85): (1.2) % | Total subjects affected by non-serious adverse events, % ([2]; full safety analysis set, 10 mg (N = 85)): (27.1%) | TEAE diarrhea, % of subjects ([2]; of 85 subjects): 8.2% | TEAE diarrhea, subjects ([2]; of 85 subjects): 7 | TEAE headache, % of subjects ([2]; of 85 subjects): 11.8% | TEAE headache, subjects ([2]; of 85 subjects): 10 | subjects experienced TEAEs of special interest ([2]; of 85 subjects): 13 | subjects experienced TEAEs of special interest, % ([2]; of 85 subjects): 15.3% | TEAE of special interest pruritus, % of subjects [2, 6]: 5.9% | TEAE of special interest pruritus, subjects [2, 6]: 5 | Subjects with drug-related TEAE, % ([2]; relationship possible, probable, very likely, N = 85): (23.5) % | ASEX score, Baseline ([3]; Baseline, n = 85): 21.26 | ASEX score, Relative % Change ([3]; Endpoint vs Baseline, n = 85): −6.91% | ASEX score, Absolute Change ([3]; Endpoint vs Baseline, n = 85, lower score indicates improvement): −1.47 | ASEX score, Endpoint ([3]; Endpoint, n = 85, lower score indicates improvement): 19.79 | sexual functioning (ASEX) ([3]; patients receiving aticaprant): notable improvements in sexual functioning | mean change from treatment baseline (SD) in ASEX total score ([3]; to week 6, lower score indicates improvement): −1.5 (4.02) points
